To fix the notation:
B1: PhoQ; a variant is named by its letters at X, in order, P23837 (parent)
chain: MKKLLRLFFPLSLRVRFLLATAAVVLVLSLAYGMVALIGYSVSFDKTTFRLLRGESNLFYTLAKWENNKLHVELPENIDKQSPTMTLIYDENGQLLWAQRDVPWLMKMIQPDWLKSNGFHEIEADVNDTSLLLSGDHSIQQQLQEVREDDDDAEMTHSVAVNVYPATSRMPKLTIVVVDTIPVELKSSYMVWSWFIYVLSANLLLVIPLLWVAAWWSLRPIEALAKEVRELEEHNRELLNPATTRELTSLVRNLNRLLKSERERYDKYRTTLTDLTHSLKTPLXXLQXXLRSLRSEKMSVSDAEPVMLEQISRISQQIGYYLHRASMRGGTLLSRELHPVAPLLDNLTSALNKVYQRKGVNISLDISPEISFVGEQNDFVEVMGNVLDNACKYCLEFVEISARQTDEHLYIVVEDDGPGIPLSKREVIFDRGQRVDTLRPGQGVGLAVAREITEQYEGKIVAGESMLGGARMEVIFGRQHSAPKDE

From a collection of fitness landscapes (doi:10.1126/science.1257360) come the findings set out here.

This is one part of the list.

Variants of B1 are the subject of the assay. Kind of assay: enrichment ratio after two sorts for PhoP signalling (ratio (wild type AVST 3.29)); higher = more functional. Particulars: with PhoP (E. coli).
Regarding AMQH, the enrichment ratio is at most 0.25.
With NKGL the figure was at most 0.25; with YAIT, at most 0.25.
WGFD: the enrichment ratio was at most 0.25.
With EAAW the figure was at most 0.25; with RHVD, at most 0.25.
With ANLS the figure was 12; with DCWQ, at most 0.25; with GSMS, 1.78.
For the variant WQPS, the enrichment ratio was at most 0.25.
Next, WMVP: at most 0.25.
GILC: the enrichment ratio was found to be 4.98.
Regarding AEVF, the enrichment ratio amounted to 14.3.
Next, FYYQ: at most 0.25; GHGI: at most 0.25.
With VDCF, the enrichment ratio is at most 0.25.
On to MFDC, for which the enrichment ratio is at most 0.25.
FLNR: the enrichment ratio is at most 0.25.
With KFQD the figure was at most 0.25.
With KINV, the enrichment ratio is at most 0.25.
Next, YNDW: at most 0.25; QCLH: at most 0.25; WAPG: at most 0.25.
SSWK: the enrichment ratio was at most 0.25.
Take ISIP: the enrichment ratio is at most 0.25.
With YLIA the figure was at most 0.25; with FIAG, at most 0.25.
As to SALG, the enrichment ratio amounted to 15.9.
As to FWFQ, the enrichment ratio is at most 0.25.
With NWHV, the enrichment ratio was at most 0.25.
With KSNC the figure was at most 0.25.
Next, GMKS: at most 0.25.
Next, NGCL: at most 0.25.
Take EHSH: the enrichment ratio is at most 0.25.
On to VGIN, for which the enrichment ratio is at most 0.25.
Next, GCST: 1.96.
On to YGRN, for which the enrichment ratio was at most 0.25.
As to YHIS, the enrichment ratio was at most 0.25.
Next, WSCK: at most 0.25; GKLS: at most 0.25.
For DRSW, the enrichment ratio was at most 0.25.
Take GTYI: the enrichment ratio was at most 0.25.
Regarding GVSC, the enrichment ratio was found to be 0.744.
As for GRCS, the enrichment ratio is at most 0.25.
Consider FNDT, for which the enrichment ratio is at most 0.25.
PSFG: the enrichment ratio was at most 0.25.
Next, MAHG: at most 0.25.
Take VILV: the enrichment ratio amounted to 0.615.
With KAWG the figure was at most 0.25; with PDVE, at most 0.25; with ELAA, at most 0.25.
For TWSR, the enrichment ratio is at most 0.25.
Next, YEWV: at most 0.25; RGGM: at most 0.25; KFPD: at most 0.25.
With ERLK the figure was at most 0.25.
Next, SLEH: at most 0.25; QPSN: at most 0.25; WTIF: at most 0.25.
With ICRE, the enrichment ratio is at most 0.25.
With MCPW the figure was at most 0.25; with WHCS, at most 0.25.
For the variant SHSF, the enrichment ratio stood at 0.587.
With KPID the figure was at most 0.25; with PVYV, at most 0.25; with PYNH, at most 0.25.
Next, AKTG: at most 0.25; DEMP: at most 0.25; RPHD: at most 0.25.
Next, RHSM: at most 0.25; LTGG: at most 0.25; SKQA: at most 0.25.
For the variant EFFA, the enrichment ratio is at most 0.25.
Next, TILV: 1.14; GTFV: at most 0.25; QHVP: at most 0.25.
As for DKYP, the enrichment ratio was at most 0.25.
Turning to VIQC, the enrichment ratio was at most 0.25.
Next, QIEF: at most 0.25; DMMC: at most 0.25; DQLM: at most 0.25.
Take VVGY: the enrichment ratio is at most 0.25.
Next, NNNK: at most 0.25; AKKS: at most 0.25; YWHA: at most 0.25.
Regarding EDEY, the enrichment ratio was at most 0.25.
In the case of ELMI, the enrichment ratio is at most 0.25.
On to AQFR, for which the enrichment ratio was at most 0.25.
With VYRT the figure was at most 0.25; with FDVF, at most 0.25.
With FTRL the figure was at most 0.25; with IGCY, at most 0.25; with SPPA, at most 0.25.
Next, YQWG: at most 0.25.
For the variant QLCD, the enrichment ratio is at most 0.25.
Take FYWQ: the enrichment ratio is at most 0.25.
With STIH the figure was 5.19.
NWCF: the enrichment ratio was at most 0.25.
Next, RPLW: at most 0.25; QHSP: at most 0.25; QSCS: at most 0.25.
Next, TMAY: 9.25.
In the case of GNSQ, the enrichment ratio was at most 0.25.
With MKTN the figure was at most 0.25; with LRPS, at most 0.25; with PQQA, at most 0.25.
AKDS: the enrichment ratio is at most 0.25.
With WMFY the figure was at most 0.25; with NYKP, at most 0.25.
Next, HEDN: at most 0.25; ISFE: at most 0.25.
Take DVQD: the enrichment ratio is at most 0.25.
Next, QVNY: at most 0.25.
In the case of SHTQ, the enrichment ratio is at most 0.25.
As to VVVD, the enrichment ratio was at most 0.25.
Regarding RPAF, the enrichment ratio is at most 0.25.
With GIRE the figure was at most 0.25.
With WHAH, the enrichment ratio was at most 0.25.
For ENIK, the enrichment ratio was at most 0.25.
Next, SFMN: at most 0.25; PGNS: at most 0.25.
Consider FCTI, for which the enrichment ratio was at most 0.25.
Next, EESQ: at most 0.25.
Next, PWGS: at most 0.25; ITWN: at most 0.25; YVSD: at most 0.25.
Next, QCLN: at most 0.25; QNIK: at most 0.25; WVLR: at most 0.25.
On to GYIE, for which the enrichment ratio is at most 0.25.
Next, FVPM: at most 0.25.
Next, VSAA: at most 0.25; FQYR: at most 0.25; WHRG: at most 0.25.
With QINN the figure was at most 0.25.
Turning to HCRG, the enrichment ratio is at most 0.25.
With TWGS the figure was at most 0.25; with ETTP, at most 0.25.
With MEAD the figure was at most 0.25; with IHHM, at most 0.25; with VDQP, at most 0.25.
Next, QMSF: 1.73.
For WFQC, the enrichment ratio was at most 0.25.
With EALM the figure was 7.29.
With GSQC the figure was at most 0.25.
With GIFS the figure was at most 0.25; with EVHR, 0.632.
Take QHYA: the enrichment ratio is at most 0.25.
Consider GSTR, for which the enrichment ratio is at most 0.25.
With AELS the figure was 10.7; with KMIF, at most 0.25; with WFMQ, at most 0.25.
Next, GLNP: at most 0.25.
